# Laboratory results from paper PMC12040169 (PLOS Biology, 2025).
# Some of the results follow.
# Tested on: T1, C. trachomatis L2/434/Bu expressing GFP (CTL2-GFP)
# T1 construct: L2/434/Bu GFP intracellular growth in HeLa cells
# Set-up: species or system HeLa; C. trachomatis total inclusion area by high-content imaging, normalised to DMSO
# Conditions: total inclusion area; 28.5 h, 10 µM; inhibitor
# How it was run: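 Bulk GFP and resorufin signals were read first. Wells were then fixed, stained with Hoechst and imaged to detect GFP inclusions and host nuclei. MICs followed the previously described calculation.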
row,SMILES,% of control remaining
1,CN1C[C@]2(CC[C@@H](C(=O)NC3CC3)CC2)Oc2ccccc2C1=O [CBK282610],109.105
2,CC(=O)NC1CCN(CC2(c3cccc(F)c3)CCCC2)CC1 [CBK282590],124.672
3,Cc1cc(Br)ccc1-n1sc2ccccc2c1=O [CBK116239],76.6138
4,Nc1ncc(-c2cccc(O)c2)nc1-c1ccc(C=O)cc1 [CBK064088],68.711
5,O=C(CSc1nnc(-c2ccccc2Br)o1)c1ccc(F)cc1 [CBK068688],116.435
6,CCNS(=O)(=O)c1ccc2c(c1)N(Cc1ccc(CO)o1)CC2 [CBK306158],86.0718
7,C=CCOc1nc2c(=O)[nH]c(NC(=O)C(C)C)nc2n1[C@H]1C[C@@H](O)[C@@H](CO)O1 [CBK201216],141.297
8,CCN1CCN(c2cc(N3CCN(C(=O)COc4ccccc4F)C(C)C3)c([N+](=O)[O-])cc2F)CC1 (stereo not shown) [CBK267513],95.8769
9,CC1(C)CC(N(Cc2ccccc2)Cc2c[nH]cn2)CC(C)(C)N1 [CBK283196],92.8977
10,CSc1nsc(SCC(=O)c2ccc(Oc3ccccc3)cc2)n1 [CBK269104],98.1454
11,Cc1cc(C)n(CC(=O)NCCCc2ccc(Cl)cc2)c(=O)n1 [CBK281561],95.3205
12,O=C(C1CCCC1)N1C2CCC1CC(O)(c1cccnc1F)C2 (stereo not shown) [CBK284421],46.7775
13,CC(=O)c1ccc(NC(=O)COn2nnc3ccc([N+](=O)[O-])cc32)cc1 [CBK266980],90.4185
14,COc1cc(OC)nc(Oc2ccc(C(=O)O)cc2)n1 [CBK092222],115.751
15,Cc1ccc2nc(SCc3cccc([N+](=O)[O-])c3)nc(C)c2c1 [CBK264370],94.0702
16,O=C1NC[C@]2(CC[C@@H](C(=O)NC3CC3)CC2)Oc2ccc(Cl)cc21 [CBK284889],91.6808
17,COc1cccc2c1cc(C(=O)NC1CCCN(C)C1)n2C (stereo not shown) [CBK283266],100.47
18,CCc1ccc(Oc2c(CC(=O)O)oc3cc(O)c(CC)cc3c2=O)cc1 [CBK266108],64.4745
19,Cc1ccc2c(c1)c(C)c(C(=O)NCCn1ccc(C)n1)n2C [CBK282609],118.236
20,COc1ccc(-c2cc(C(=O)OCC(=O)c3cccc4ccccc34)c3ccccc3n2)cc1 [CBK265513],70.4436
21,O=C(CCC(=O)Nc1ccc(F)cc1)N/N=C/c1ccc(O)cc1O [CBK261766],95.5356
22,CCOc1ccccc1NC(=O)CCCC(=O)O [CBK275986],104.219
23,O=C(c1nc2ccccc2s1)C1CCNCC1 [CBK285397],82.0924
24,CSCCN1CCN(c2nccnc2OC2CCCCC2)CC1 [CBK082843T],112.196
25,Cc1cc(S(=O)(=O)Nc2ccnn2C(C)C)ccc1F [CBK283069],81.6584
26,Cc1ccc(CCNc2c([N+](=O)[O-])nn(-c3ccc4c(c3)OCCO4)[n+]2[O-])cc1 [CBK268225],61.0232
27,O=C(O)c1ccc(N2C(=O)CC(N3CCC(Cc4ccccc4)CC3)C2=O)cc1 (stereo not shown) [CBK273484],107.061

row,SMILES,% of control remaining
1,NC(=O)c1cccc(-c2nc(-c3cccs3)cnc2N)c1 [CBK064117],117.257
2,O=C(CC(CN1CCN(Cc2cccnc2)CC1)C(=O)O)Nc1ccc(Cl)cc1 (stereo not shown) [CBK286853],115.763
3,COc1ccc(S(=O)(=O)N2CCN(C(=O)c3ccc(C(C)(C)C)cc3)CC2)cc1 [CBK157251],54.6616
4,O=C(O)C1C2CCC(O2)C1C(=O)N1CCN(Cc2ccc(Cl)cc2)CC1 (stereo not shown) [CBK286943],62.7799
5,Cc1sc2ncn(CC(=O)NCCc3c[nH]cn3)c(=O)c2c1C [CBK304685],89.631
6,CCOC(=O)C1(C2CCCCC2)CCN(C(=O)CC2CCCCC2)CC1 [CBK136919],101.992
7,NC(=O)c1ccc(NC(=O)c2cncc(-c3ccc(C(=O)N4CCOCC4)cc3)c2)cc1 [CBK160214],86.7791
8,CC1(C)C(C(=O)O)C1C(=O)NCCc1ccc(O)cc1 (stereo not shown) [CBK286832],118.34
9,CCc1nc2ccc(C(=O)NCCN3CCOCC3)cn2c1N(C=O)Cc1ccc(OC)cc1 [CBK146625],92.1813
10,COc1ccccc1NC(=O)C1=C(C)Nc2nnnn2C1c1ccc(OC)c([N+](=O)[O-])c1 (stereo not shown) [CBK293954],113.541
11,O=C(NNc1ccc([N+](=O)[O-])cc1)c1cccs1 [CBK261709],102.975
12,Cc1cc(C)c2c(N)c(C(=O)Nc3ccc(C(=O)O)cc3)sc2n1 [CBK300515],88.5824
13,COCC(=O)N1CC[C@@H]2[C@H]1C(=O)N(c1ccc(OC)cc1)C(=O)N2Cc1ccccc1 [CBK289280],93.0603
14,COc1ccc(NCC(=O)N/N=C(\C)c2ccccc2O)cc1 [CBK263887],93.892
15,CCCCN(CC(N)=O)C(=O)c1sc(COc2ccc(Cl)cc2)nc1C [CBK304539],9.872
16,O=C(O)C1CCN(C(=O)CCC2CCCCC2)CC1 [CBK286804],111.311
17,O=C(NC1CC1)c1cnc2ccc(F)cc2c1O [CBK307629],81.04
18,OCCOc1cccc(OCCOc2nccnc2N2CCNCC2)c1 [CBK014339G],103.583
19,COc1ccc(CCN2C(=O)CC(N3CCN(c4ccccc4)CC3)C2=O)cc1OC (stereo not shown) [CBK262354],92.8978
20,COc1cccc2sc(Nc3nnc(-c4cccs4)o3)nc12 [CBK287473],62.6468
21,Cn1c(SCC(=O)Nc2ccc(N3CCOCC3)c(Cl)c2)nnc1-c1ccc(N)cc1 [CBK265777],93.6041
22,COc1ccc2[nH]c3c(c2c1)CCN(C(=O)CNCC(=O)O)C31CCN(CCOc2ccccc2)C1 (stereo not shown) [CBK082782T],105.531
23,COc1ccc(Sc2cc3n(c(=O)n2)CCc2cc(OC)c(OC)cc2-3)cc1 [CBK291186],117.507
24,COCC1CCCN(S(=O)(=O)c2cnc3ccsc3c2)C1 (stereo not shown) [CBK306397],25.366
25,N#Cc1ccc(NC(=O)NCC2(N3CCOCC3)CCSC2)cc1 (stereo not shown) [CBK304546],60.1696
26,Fc1ccccc1-c1nc2cnccn2c1NCc1ccco1 [CBK283681],71.2177
27,O=C(Oc1ccc(/C=N/Nc2nc(N3CCOCC3)nc(N3CCOCC3)n2)cc1)c1ccccc1 [CBK262064],100.36

row,SMILES,% of control remaining
1,O=c1[nH]c2ncc(-c3cccc(Br)c3)nc2n1Cc1ccccn1 [CBK065020],81.9945
2,CSCCC(=O)N1CCC2(CCN(C(=O)Cc3c[nH]c4ccccc34)C2)C1 (stereo not shown) [CBK131442],71.828
3,COc1cc(C(=O)CCN2CCCCC2)cc(OC)c1OC [CBK015639C],33.0218
4,CC(=O)N1CCC[C@H]2NC(=O)CNC(=O)C3(C/C=C/C[C@H]21)CCN(CC(C)C)CC3 [CBK292088],121.406
5,CC(=O)Nc1ccc(CNC(=O)c2ccoc2C)cc1 [CBK305010],78.0262
6,CCOc1ccc(S(=O)(=O)N2CCCN(CC(C)C)CC2)c2cccnc12 [CBK062758],88.2162
7,COc1cccc(C(=O)NCCC(=O)N2CCC3(CC2)CNC(=O)O3)c1 [CBK306803],50.9525
8,CC(=O)Nc1cccc(-c2cncc(NCc3cccc(Cl)c3)n2)c1 [CBK065236],98.9788
9,CN(C)C(=O)c1cccc(-c2nccnc2NCCO)c1 [CBK036582],91.1626
10,CC1(O)CCCN(C(=O)c2c[nH]nc2-c2cc3ccccc3o2)C1 (stereo not shown) [CBK305555],62.9553
11,Cc1cc(NS(=O)(=O)N2CCCCC2)no1 [CBK269947],47.5199
12,COC(=O)c1cn([C@H]2CO[C@H]3[C@@H]2OC[C@@H]3NC(=O)Nc2ccc(OC)cc2)nn1 [CBK289500],99.4864
13,Cc1cn(CC(=O)N2CCC3(CCN(C(=O)Cc4c[nH]c5ccccc45)C3)C2)c(=O)[nH]c1=O (stereo not shown) [CBK131445],88.08
14,Cc1nc(C)n(CC2CCCN(Cc3cc(=O)n4ccccc4n3)C2)n1 (stereo not shown) [CBK304135],67.0777
15,COCCn1nc(C(=O)N2CCCc3ccccc32)ccc1=O [CBK305590],46.0018
16,CCNC(=O)CNc1cc(C#N)ccc1C(F)(F)F [CBK306432],62.8082
17,COCCc1noc(CC2CCN(c3ccc(Cl)c(C#N)n3)CC2)n1 [CBK304177],58.8461
18,O=C1CC[C@@H](NCc2cccs2)[C@H](c2cc(F)cc(F)c2)N1 [CBK283129],0.8582
19,COc1ccc2c(c1)CCC1CN(C)N=C21 (stereo not shown) [CBK010890],74.7637
20,O=C1CSC(=O)N1CNc1ccc(Br)cc1 [CBK261819],88.1621
21,COc1cc(-c2cc(N3CCN(Cc4cccnc4)CC3)n3nccc3n2)cc(OC)c1OC [CBK037063],129.731
22,Cc1cc(N(C)C)nc(SCc2n[nH]c(=S)o2)n1 [CBK006887],61.6816
23,Cc1cn2c3c(=O)n(CCN4CCOCC4)c(=O)n(C)c3nc2n1CC1CCCO1 (stereo not shown) [CBK269985],95.2206
24,Cc1[nH]c2ccccc2c1C(=O)CSc1nnc(Cc2cccs2)n1C [CBK268663],68.4615
25,COc1ccc(C(=O)CSc2nnc(-c3ccccc3)[nH]2)cc1[N+](=O)[O-] [CBK263299],66.1259
